Test results published in the supplement of paper PMC3334620.
The full ranking holds about 33,000 sequences; the median of “E-score (-0.5 to 0.5)” is about -0.012, and the highest 2% start at about 0.27. Some of the results follow.

target: T1, Vhr1 (UniProt P40522); test: PBM E-score (8-mer binding enrichment) (E-score (-0.5 to 0.5)); higher = stronger / more preferred TF binding; most listed sequences are background and not binding sites; details: protein concentration: 200 nM; construct: GST-full length
T1 sequence: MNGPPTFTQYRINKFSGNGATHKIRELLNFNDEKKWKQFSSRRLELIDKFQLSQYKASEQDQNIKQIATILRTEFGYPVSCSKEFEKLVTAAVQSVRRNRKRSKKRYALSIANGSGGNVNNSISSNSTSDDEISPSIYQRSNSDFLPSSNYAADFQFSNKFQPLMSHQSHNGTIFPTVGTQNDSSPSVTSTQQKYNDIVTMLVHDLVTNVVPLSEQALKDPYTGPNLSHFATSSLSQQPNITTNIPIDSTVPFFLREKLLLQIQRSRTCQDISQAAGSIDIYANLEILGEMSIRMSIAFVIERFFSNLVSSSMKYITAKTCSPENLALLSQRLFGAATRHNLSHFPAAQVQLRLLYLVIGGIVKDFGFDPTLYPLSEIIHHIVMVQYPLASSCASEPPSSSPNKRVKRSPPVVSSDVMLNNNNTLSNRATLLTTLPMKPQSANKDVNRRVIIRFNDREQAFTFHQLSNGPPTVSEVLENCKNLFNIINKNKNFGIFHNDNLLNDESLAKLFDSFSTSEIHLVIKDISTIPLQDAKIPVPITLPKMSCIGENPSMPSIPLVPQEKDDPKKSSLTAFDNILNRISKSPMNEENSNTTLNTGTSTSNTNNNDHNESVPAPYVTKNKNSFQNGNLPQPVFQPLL
Experimental: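 Universal 'all 10-mer' protein binding microarrays (Agilent AMADID 015681) probed with GST-tagged S. cerevisiae TFs (full-length or DBD) made by in vitro transcription/translation (PURExpress), about 100-200 nM. Bound TF was detected with fluorescent anti-GST. Each ungapped 8-mer (which stands for itself and its reverse complement) is scored by the PBM enrichment score (E-score), a modified Wilcoxon-Mann-Whitney statistic from -0.5 to +0.5, computed with the Universal PBM Analysis Suite. Scale: above 0.35 generally sequence-specific binding.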

Sequence	PBM E-score
AGAGATAC	-0.0896
AGGGTGTC	0.149
CAGGAGAG	-0.0559
AGAGCAAA	-0.203
CCAAGAGG	-0.156
AAGATATA	-0.00704
CTGCAACA	-0.095
CCTGTGTA	0.133
ATCTATCA	0.137
CATGACGC	0.223
ACTTCTGC	-0.0798
ATTATGGG	0.152
CAAGACCA	-0.13
ATAGAATA	0.134
AAGGAGGC	-0.299
GTCTGCTA	-0.0897
CCCCCTCG	-0.242
ATGACAAG	-0.0539
GAGCCTTA	-0.0614
GACTTGGC	0.0496
CGTCGGCC	-0.143
AATACTAT	0.153
CGCGGGGA	0.292
ACCCGTAA	0.0347
CCCTCGAC	-0.0229

Sequence	PBM E-score
GTACGTAC	-0.0834
GTCATTCA	0.115
GCAAAACA	-0.0563
CACGGTGA	0.106
CTCGGCGC	0.193
GAGACCTC	0.0786
CGCCATAG	0.1
ATAGCACC	-0.148
AGGTCTTA	-0.189
ATGTAAAG	0.0242
CAGCATAG	-0.0287
CAGAGTCG	0.328
ACGCAATG	-0.0888
CGGCCATA	-0.111
AGTACGCA	-0.0941
AAGAGACG	-0.127
AAGGAGTG	0.0706
ATGTACCG	0.084
ACCAATAT	0.151
CAGACTAA	0.117
CGGCTCTA	0.0843
CTCAGAAA	-0.0969
CTTACCCC	-0.156
ACTTGTTG	-0.0998
ACACACGC	0.183

Sequence	PBM E-score
AACCGTGA	0.0681
ACCTCGCA	-0.0858
AACAGCAA	0.0779
CGCCAAGC	-0.192
AGGTATTC	-0.144
ACGCGGGC	0.206
AATACGCA	-0.0668
ACACCAGG	0.111
AAATCAAC	-0.0401
CTCGCTCC	0.196
CCACGGAC	-0.0292
CGAGCCAA	0.00102
AGCGAGCA	-0.121
GTCGCCTA	0.0142
AGTCGCTA	0.174
CATAGCCA	0.142
CTAGGCCC	-0.21
AGCGGGTG	0.014
GATTACAC	0.141
GCAAGGGA	0.0335
ACCTTCAC	-0.00257
ATATTATC	0.0882
CGATAATC	-0.0502
ACGTCACC	-0.0531
GTGGGACA	0.0875

Sequence	PBM E-score
CAAGTCCC	-0.219
GACCGTAC	-0.225
CACTGAAA	0.0366
ATGTCCAC	-0.0274
ATCCTATA	0.177
CGTTCGGC	0.00075
CGTAACTA	-0.022
AAAAGAGC	-0.163
AGTATATC	0.0944
ATGTAGGA	-0.146
CGGTTTTC	0.0491
ATCGACAT	0.013
ACCTCATC	0.0088
CGGGCTTA	-0.0289
CGGACCCG	0.0841
GCTGCACC	0.0112
CGCATTAC	0.0236
CTACCATC	-0.0279
AGAGCTTA	-0.271
ATCTCATA	0.00201
CCCGGAAC	-0.139
AACTGTAA	0.135
GAGGCCGC	-0.167
AAGAAACG	-0.123
TCAGTCGA	0.096

Sequence	PBM E-score
CCTGAGAA	-0.225
CAGAGCGG	-0.0139
CCTGCCTA	-0.0135
AGTTGTTG	0.0147
ATATACTA	0.257
CCCGTGTA	-0.0121
GAAGGCGA	-0.101
ATCATACC	0.25
GGCTACCC	-0.179
GGATCCGA	-0.0296
GACATGTC	-0.13
AAAAAACA	-0.0608
ACCCGGAC	0.0466
ATTATCTA	0.0263
GTTATGCA	-0.119
CTGGTACC	-0.00802
TTCGCCAA	-0.108
ACAGTGAC	0.261
CATCGGCG	0.0316
CGTCAATA	-0.142
ATGCGGAC	0.0012
GCTTCTCC	-0.0809
ATTGCCAG	0.0576
AATACCAC	0.0755
ACTGTCCT	0.145

Sequence	PBM E-score
AATTTCGG	-0.24
AAATTTTG	-0.287
AGCACTGC	-0.211
AAGTCAGC	0.281
AGACTCGA	-0.0333
ATTTGGCG	-0.168
GGTACCAC	-0.0628
GCATAAGA	0.0244
CTCTGGAC	0.0126
CTCGGCTA	-0.111
ATAGTACC	0.148
TAGCCCAA	-0.0151
CAACAAAC	0.165
GTGCACAC	0.0632
CTAATCCA	0.0297
GAACTATC	0.0026
CAGAACCG	0.171
CCGCCACC	0.0179
ACTCTGCG	0.114
ATAGCGCG	0.0968
ACACTCTG	0.141
ACCGAACG	0.087
GCGCGAAA	-0.00095
GTAAAAAC	-0.0347
GCTCCCTA	-0.16

Sequence	PBM E-score
CCTAAACG	-0.195
GCTCGGAA	-0.0886
AGTTTTAA	-0.156
AGGCTACG	-0.359
GACTTCGC	0.212
CTGTTTGA	0.127
CGCTGTTC	-0.093
AATGTAGG	-0.219
CCCTAGAC	-0.206
AGTCCCTG	-0.0472
AGCTGTGG	-0.103
AAGAGTAT	-0.21
AGCACAGC	0.207
AGGCCGAC	-0.138
TTGGCCAA	-0.126
TAACTCTA	-0.149
GCGCTAGA	-0.0467
CAGAACAC	0.0862
TGGCTTAA	-0.061
AAGGTTCA	-0.0208
TCGCTAGA	-0.0457
ATGGATCA	0.146
